Measured values as given in publication PMC12751073, “Unconventional binding of calmodulin to CHK2 kinase inhibits catalytic activity” (Biochemical Journal, 2025).

Experiments:
His6-tagged calmodulin = target: T1, His6-tagged calmodulin (human, UniProt P0DP23); experiment: far-Western, overlay or dot blot; full-length recombinant proteins spotted on nitrocellulose (2 µl; ~2 µg), probed overnight with His6-CaM (1 mg/ml; 1:1000 dilution) with CaCl2 (200 µM in the methods, 500 µM in the legend); detected with anti-His6-HRP; settings: both partners purified
T1 construct: called human CaM in the HDX methods; His6 tag detected with anti-His6-HRP in the far-Western; also called His6-CaM; CaM; source: E. coli BL21-CodonPlus-RIL, purified (Ni-NTA, SEC); not shown: His6, N-terminal, kept

[1] = target: T2, Calmodulin (recombinant, produced in-house) (human, UniProt P0DP23); experiment: cross-linking; DMTMM (zero-length) cross-linking with mass spectrometry; CHK2 and CaM 1:5 molar ratio; 50 mM HEPES pH 7.5, 2 mM CaCl2; 30 min at room temperature; settings: both partners purified
T2 construct: called human CaM in the HDX methods; The His6 tag was cleaved with TEV 'for applications where the absence of His6 tag was desirable'; also called CaM; Ca^2+-CaM; source: E. coli BL21-CodonPlus-RIL, purified (Ni-NTA, SEC)

- binding result (His6-tagged calmodulin): binds
- binding result [1]: binds
B1: Full-length recombinant human CHK2 ([…]) (enzyme)
chain: not shown
notes: human CHK2, called full-length with […] stated in the methods; also called CHEK2; Checkpoint kinase 2; source: E. coli BL21-CodonPlus-RIL, purified (glutathione resin, TEV cleavage, SEC); not shown: GST, N-terminal, cleaved
